In the RNAGym collection of RNA variant scans (doi:10.7554/elife.90254):
Read counts are not given, so values of variants with three or more changes are uncertain.

B1: LINE1-mini (parent)
chain: GGCAGAGCUCAACACAGCGUGGCAAAGUGGCUGUGGCUAGACUGCC

Variants of: B1
Experiment: self-cleavage, relative activity (ratio to wild type); higher = more cleavage; in vitro, sequencing; the parent is a self-cleaving ribozyme

Variant | self-cleavage
A14G C15A A26C G33C U34G | 0.04
C10G A14U G36C | 0.03
C8G C31A G40U | 0.03
C10G A14G G36C U43A | 0.01
A6C U9G A24G C45G | 0.02
C8G A11U A26G | 0
C8U A16U G17C U20A | 0.11
G1U C3U C10A | 0.04
A4U A11G A14U G21A | 0.02
G7A A11G G29U | 0.02
A14C G22U A41C C45A | 0.08
G2U C10A A41G C42U | 0
C3A C18G G40U | 0.19
A6U G17U G30C G40C G44U C46G | 0
G2U A11U C13A C15U G17U C37U | 0.01
G1U A16G G29U G40A | 0.02
C10G C13A A26U U38A | 0.03
C10A C13A G35U G36C C42G C46A | 0.01
C10A C15U G22C G29U | 0.06
G7C A26G G40A C45U | 0.05
C3A U20G G40C | 0.06
A14C C15A U28C G36U | 0.06
C23A G35U G36C | 0.24
G19C A26G G35A | 0.08

Variant | self-cleavage
G2A G17U C46A | 0.1
A11U C13A C31A | 0.02
G2C C3U G33A | 0.05
A4U U20A C46U | 0.06
G7A C13A G27A G33U C46A | 0.17
G17A U20A G22C A26U | 0.02
C8G U34G G40A U43C | 0
C3U C23A A25G | 0.2
G2C C13G C15U G19U U34C G44A C46G | 0.03
A6U A12U U20C | 0.12
A25G A26G A41G U43C | 0.01
A4G C18U G22C A25G | 0.17
G1A G2C A4U G17C G30U U34G | 0.04
C13G U32A C37G G40U | 0.01
C3U A6G G7A C42U | 0.13
G2U G7A C18A A41G | 0.03
C31G G35C U38A | 0.03
G7C U20G A26G G30U C42U | 0
G21C C23A C42A | 0.27
A11G U20G G36A A41G C42U | 0
G1A G22U U34A | 1.61
C10A G19A G27C | 0.04
G5U G17A C37A U38G | 0.02
G2C A11G U20A G40A | 0.02

Variant | self-cleavage
C31U A39U G40U | 0.01
C8G C10U G30U | 0.05
A4C C10G G19U U34G | 0.02
G5A A16C U38G C42U | 0.01
C31G U32A C45U | 0.04
A14C C23G U43C | 0.01
G1C G19A A25C G27U | 0.04
G29U G30C U38C | 0.04
C10A G21U U34A G40C A41C | 0.01
C13U A24C U32C | 0.03
A12G G21U A26G G29U | 0.02
A12C C18A C23U | 0.02
G2C A25U A26G U28G | 0.03
G2U G35C G44A | 0.02
G1A A4G U9G | 1.16
G5C G40A U43C | 0.03
C3A C8U A25C | 0.86
G5A U28G G36C A39U | 0.02
A6C G7C G19A G21A G30C U32C G40C | 0.05
A11C G19C C42A C46U | 0
A6C C15A A16U C31A | 0.05
C18A G21U G35C | 0.01
C8G C31A G36C | 0.03
C3U A24C U34A G35U | 0.1

Variant | self-cleavage
G1A G2U U34C C42G | 0.05
A4C G7A A11U A25C G40U | 0.05
G2U C10A A11C G33C | 0
G17U U32C G36C A39C G40U | 0.05
G2A C3A U9C C10U G21A C37G | 0.28
A11U C13G C18U | 0
G2C U9C U28G | 0.02
A4C A11C C23U G29U | 0.01
G5A G7U G17A | 0.13
U9C G21U A25G C46A | 0
U9A A14U A16C G36U C42A | 0.01
C8U A16C C42G | 0.09
G1A A14C G29C G40U | 0.04
A16G G21U U28G U32A | 0.06
A4G A12G U20A A24C G30U G35U | 0.05
A14C G17U G19A G35A G44U | 0.01
A12G C15U G19A | 0.01
U28C U34C C37U | 0.06
G2A G19U C45G C46U | 0.51
G22A A25C G35C | 0.03
A14U C18U G30C | 0.03
G19A C37A U38G A39U | 0.04
C8U G27A C46G | 0.27
C3A A11G C31U C42G | 0.02

Variant | self-cleavage
G27U A41C C42U | 0.12
C10U A12G G40A | 0.01
A4G C8U G17A A41U | 0.1
C10G U28A G29U A39U | 0.05
C3U A12U G29C | 0.08
G22U C45G C46U | 1.16
G2C C8G G17A | 0.47
U20A C23U U38C | 0.42
G2A A4C G17C A39C | 0.03
G7C U20G U32A | 0.23
A6C G17U G44C | 0.05
G5A C8A G19C U28G | 0.21
G5A C23A G33U | 0.09
C3A C8U G40C | 0.17
G30C G35C A39C | 0.14
G1A A6C G7U C23U U43G | 0.05
C18A C23A U32C U38G C42U | 0
C10U G35A A39G U43A | 0.02
G1C C8U A12C | 0.01
G2U G5A C31A C42U | 0.03
C15A C18A G35C | 0.04
A14U G19A U38G A39C | 0.01
C10U A14C G33C | 0.01
C8G G33U C37G C45U | 0.07

Variant | self-cleavage
A4G U32G A41G | 0.03
C13U G35U A39C G40U | 0.11
G1C A39G G44U C45A | 0
A14C U38A C46U | 0
A11U C23G A24C | 0.02
A11G C18G A24U U34A C37A | 0
C23G G40A A41U | 0.06
A6C A14U C46U | 0.3
C15A A25C U32G | 0.03
C10A A25U G29C C37G C46G | 0.01
C8A C10G A14U | 0.03
A16U A24G C46U | 0.07
G7C C10G A12C G35U A39C | 0.03
C15U U20C G22C | 0.99
G21C G29A U32C | 1.26
U20A G30A C42G | 0.01
U38G A39G C45G | 0.03
C3A C10G C15G G17C | 0.03
A4C G19A C37A U38A C45G | 0.05
G2A G5C C10A C45G | 0.05
G7A A25U G35C U43G | 0.06
A25C A39U G40A | 0.09
G1C G2A G33A A39C | 0.02
G1A G17U G21U G36C | 0.09

Variant | self-cleavage
C18U G19C G21A U34G U38C A41U G44U | 0.03
C10A U34A G40A | 0.03
A25U G27A G30U G44U | 0
A16U G22C G40U | 0.03
A6U C18A A41G | 2.31
A6U G36A G40U | 1.07
C8G C13G U34A | 0.23
A14G A25U G27U G40C | 0.12
G2U G19U G22U C31U G40U A41U C45U | 0.01
C8U G17U C42G C46G | 0.09
A6C C10U U28G C45G | 0.02
G2U U32A C42G G44C | 0.01
C18A A25C C31A U38G | 0.01
A12U U34G C45U | 0
C15A G27U U34C | 0.03
A12C C23A A39U C42U | 0.01
A16U A26U G27U G35A | 0.17
G7A G17C A24U U28G | 0.15
G29U G40A C45A | 0.02
C8U G29A G44C | 0.11
A11U C13U C31U U38A | 0.03
C13A C18U U38A | 0.03
G17C A24G C46U | 0.04
